# Measured values as given in publication PMC4336329 (PLoS ONE, 2015).
# Screen size: about 310,000 compounds; about 2,200 (0.71%) showed an effect of 50% or more. Effects have a minus sign here. The list shows a part of the results.
# Target: human ether-à-go-go-related gene (hERG) potassium channel (human, UniProt Q12809)
# Assay: primary screen, population patch clamp on CHO cells stably expressing hERG
# Sequence of human ether-à-go-go-related gene (hERG) potassium channel (Q12809 whole entry, looked up): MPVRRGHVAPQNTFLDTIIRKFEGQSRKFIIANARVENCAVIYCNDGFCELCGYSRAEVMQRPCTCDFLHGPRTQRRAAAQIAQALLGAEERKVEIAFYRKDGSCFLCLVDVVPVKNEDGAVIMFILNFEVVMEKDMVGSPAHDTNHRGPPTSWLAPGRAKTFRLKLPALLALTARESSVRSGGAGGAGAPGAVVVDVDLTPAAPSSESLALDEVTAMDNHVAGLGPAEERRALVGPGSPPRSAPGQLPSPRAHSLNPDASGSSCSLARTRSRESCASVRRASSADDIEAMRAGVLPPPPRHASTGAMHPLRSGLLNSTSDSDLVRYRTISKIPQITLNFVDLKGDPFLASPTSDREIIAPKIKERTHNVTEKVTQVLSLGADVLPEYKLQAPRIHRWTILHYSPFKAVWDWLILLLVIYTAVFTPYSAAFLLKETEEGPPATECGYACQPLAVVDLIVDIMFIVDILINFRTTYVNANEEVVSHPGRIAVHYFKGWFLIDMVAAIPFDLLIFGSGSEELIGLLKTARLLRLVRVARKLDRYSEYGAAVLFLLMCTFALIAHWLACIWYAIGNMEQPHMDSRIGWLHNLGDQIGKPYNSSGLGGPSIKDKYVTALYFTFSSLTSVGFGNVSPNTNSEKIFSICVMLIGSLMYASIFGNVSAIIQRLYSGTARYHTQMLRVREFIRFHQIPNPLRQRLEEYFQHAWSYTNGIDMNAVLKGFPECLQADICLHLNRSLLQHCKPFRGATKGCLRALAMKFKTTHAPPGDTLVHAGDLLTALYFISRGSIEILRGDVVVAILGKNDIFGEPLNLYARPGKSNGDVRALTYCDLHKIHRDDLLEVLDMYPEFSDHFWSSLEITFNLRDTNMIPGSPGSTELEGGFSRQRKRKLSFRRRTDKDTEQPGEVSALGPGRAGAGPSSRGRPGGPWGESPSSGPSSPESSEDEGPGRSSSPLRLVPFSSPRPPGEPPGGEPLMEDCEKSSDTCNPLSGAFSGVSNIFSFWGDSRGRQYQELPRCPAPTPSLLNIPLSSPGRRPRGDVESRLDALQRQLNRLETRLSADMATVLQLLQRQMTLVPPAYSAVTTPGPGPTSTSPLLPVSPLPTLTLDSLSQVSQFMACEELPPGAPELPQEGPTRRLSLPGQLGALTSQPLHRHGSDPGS
row,Compound,"hERG current change (%, negative = inhibition) at 1uM [%]"
1,O=C(Cc1ccccc1[N+](=O)[O-])NCc1ccc(Cl)cc1,8.46
2,CN1CCN(c2ccccc2/C=N/NC(=O)c2cccnc2)CC1,18.3
3,c1ccc(-c2nc(-c3cccnc3)cs2)cc1,11.2
4,CCOc1ccc(-n2nc3c(=O)n(CCN4CCCCC4)nc(C)c3c2C)cc1,1.05
5,OC1CCCN(Cc2ccccc2)C1 (centres unmarked),2.52
6,Cc1nc2ncnn2c(C)c1CCC(=O)Nc1csc(N)n1,4.04
7,Cc1ccc(NC(=S)NNC(=O)c2c([N+](=O)[O-])c(C)nn2C)cc1,-0.563
8,CSCCC(NC(=O)c1ccc(Br)cc1)C(=O)O (centres unmarked),12.3
9,COc1ccc(C(=O)N=C2SC3CS(=O)(=O)CC3N2Cc2ccccc2)cc1OC (centres unmarked),18.4
10,CC1Cn2c(nnc2-c2cccc(N)c2)S1 (centres unmarked),15.2
11,c1cc2c(cc1CN1CCNCC1)OCO2,10.9
12,Cc1ccc(CNCc2ccc3c(c2)OCO3)c(C)c1.O=C(O)C(=O)O,13.3
13,COc1cc(C(=O)Nc2cc(C)ccn2)cc(OC)c1OC,9.03
14,COC(=O)Cc1c[nH]c2cccc(OCC(O)CN(Cc3ccccc3)C(C)C)c12.O=C(O)c1ccccc1O (centres unmarked),-31.5
15,COc1ccc(C(=O)C2CCN(CC(=O)NCc3ccccc3)CC2)cc1,-16
16,COc1ccccc1C(=O)NC(=O)COC(=O)Cc1ccccc1[N+](=O)[O-],8.6
17,CN1CCCC1CCNC1C2CC3CC(C2)CC1C3 (centres unmarked),3.8
18,COc1ccc(CC2CCOC2=O)cc1 (centres unmarked),0.237
19,CCOc1ccc(Nc2nc(N)c([N+](=O)[O-])c(N3CCN(CC)CC3)n2)cc1,-4.67
20,CC(C)CNC(=O)c1ccc(NC(=O)c2ccccc2[N+](=O)[O-])cc1,18.4
21,CN(C(=O)COC(=O)/C=C/c1ccccc1[N+](=O)[O-])c1ccccc1,-2.7
22,O=C(Nc1ncn[nH]1)c1cc(S(=O)(=O)Nc2ccc(Cl)cc2)ccc1Cl,6.69
23,COc1ccc(S(=O)(=O)N(C)CC(=O)NCc2ccccn2)cc1,14.3

row,Compound,"hERG current change (%, negative = inhibition) at 1uM [%]"
1,O=C(N/N=C/c1ccc(F)c(F)c1)c1cccc(S(=O)(=O)N2CCCCC2)c1,12.5
2,CCc1ccc(OCC(=O)NNC(=O)c2cnccn2)c(Br)c1,5.9
3,Cc1cc(-c2cc(C(=O)NCc3ccccc3)on2)nc(S(C)(=O)=O)n1,15.9
4,Cc1nc2ccccc2nc1OCC(=O)Nc1ccc(F)cc1,19.1
5,CCOC(=O)c1[nH]c2ccccc2c1NC(=S)Nc1cccc(C)c1C,4.85
6,COc1ccc(OC)c(NC(=O)CNC(=O)c2ccc([N+](=O)[O-])cc2)c1,4.17
7,C1=C(c2ccccc2)Nc2nnnn2C1c1cccs1 (centres unmarked),-0.713
8,C=CS(=O)(=O)c1ccc(Oc2ccc(S(=O)(=O)C=C)cc2)cc1,-11.1
9,COc1ccccc1NC(=O)Nc1cnccn1,-0.567
10,COc1cc2c(cc1OC)C1=C(C#N)CC/C(=N\S(=O)(=O)c3ccccc3)N1CC2,10.5
11,Cc1ccc(-c2nn(-c3ccccc3)cc2/C=N/n2c(-c3cccs3)n[nH]c2=S)cc1,15
12,CCCCS(=O)(=O)/C=C/[C@H]1[C@H](S(=O)(=O)CCCC)[C@H]2C=C[C@@H]1C2,5.33
13,CC(Sc1nnc(-c2cccs2)n1-c1ccccc1)C(=O)NCc1ccco1 (centres unmarked),-39.3
14,COc1cccc(OCC(=O)N(C)Cc2nc(-c3cccc(C)c3)no2)c1,4.82
15,COc1ccc(NC(=O)CN(C)CC(=O)NCC(=O)Nc2ccc(F)cc2)cc1,-3.56
16,N#Cc1ccccc1S(=O)(=O)N1CCN(CC(O)c2ccccc2)CC1.O=C(O)C(=O)O (centres unmarked),9.53
17,CC(C)Oc1ccc(C(=O)NN2C(=O)NC3(CCCCC3)C2=O)cc1,6.94
18,CC1CCN(C(=O)c2ccc(S(=O)(=O)N3CCCC3)cc2)CC1,9.44
19,Cn1c(=S)[nH]c2c(c1=O)C(C)(C)Cc1ccccc1-2,10.7
20,Cc1ccc(Cl)cc1N1CCN(S(=O)(=O)c2ccc(-c3ccc(=O)[nH]n3)o2)CC1,-12.2
21,CCOc1ccccc1OCCOCCN1CCN(Cc2ccccc2)CC1.O=C(O)C(=O)O,-12.9
22,COc1ccc(-c2cc(C(F)F)n3ncc(C(=O)N4CCSCC4)c3n2)cc1,-8.71
23,CCCN1CCN(CCCNC(=O)c2ccccc2NC(=O)C2=C(C)OCCS2)CC1,5.99

row,Compound,"hERG current change (%, negative = inhibition) at 1uM [%]"
1,Oc1ccc(N2CCN(Cc3ccc(OCCCN4CCCCC4)cc3)CC2)cc1,9.04
2,COc1ccccc1OCC#CCN1CCCC(C)C1.O=C(O)C(=O)O (centres unmarked),28.9
3,O=C(Nc1cccc([N+](=O)[O-])c1)Nn1cnnc1,3.99
4,O=C(NCCc1c[nH]c2ccccc12)C1CCN(Cc2ccc(Br)cc2)CC1,-1.7
5,COc1ccc(/C(C)=N/NC(=O)CNC(=O)c2cccnc2)c(OC)c1,9.76
6,[2H]C(CCOS(N)(=O)=O)c1ccccc1 (centres unmarked),10.2
7,CC(=O)Nc1ccc(S(=O)(=O)Oc2ccc3c(c2)C(C)=CC(C)(C)N3)cc1,9.9
8,Cc1ccc(/C=C/C(=O)Nc2cccc3ncccc23)o1,19
9,CCN(CC)c1ccc(/C=N/NC(=O)c2c(-c3ccccc3)noc2C)cc1,8.14
10,COCCn1c(=NC(=O)CSCC(=O)NC2CCCCC2)sc2cc(OC)ccc21,-6.62
11,Cn1cc(C(=O)NC2CC2)c2ccccc21,19.3
12,CC(OC(=O)c1cc(=O)[nH]c2ccccc12)c1ccccc1 (centres unmarked),6.83
13,CC(=O)c1ccc(N2CCN(S(=O)(=O)c3ccc4c(c3)CC(=O)N4C)CC2)cc1,8.02
14,O=C(NCCCc1ccccc1)c1cc([N+](=O)[O-])ccc1Cl,13.5
15,O=C(COC(=O)c1c2c(nc3ccccc13)/C(=C/c1cccc([N+](=O)[O-])c1)CCC2)NC1CCS(=O)(=O)C1 (centres unmarked),-7.27
16,Cc1c(C)n2c(SCC(=O)Nc3cccc4ccccc34)nnc2[nH]c1=O,10.8
17,COC(=O)C1=C(O)/C(=C\c2ccc(OCC(=O)Nc3ccccc3OC)cc2)N=C1C,9.59
18,CCN(CC)C(=O)c1[nH]cnc1C(=O)NCc1ccc(CNC(=O)OC(C)(C)C)cc1,19.9
19,C=CCOc1cccc(NC(=O)c2ccccc2SC)c1,11.1
20,O=C(CCCc1ccccc1)N1CCc2ccccc21,13.7
21,O=C(O)C1C2C=CC(O2)C1C(=O)Nc1ccccc1C(F)(F)F (centres unmarked),0.541
22,CC1=Nc2cc(C(=O)NCCN3CCOCC3)ccc2Sc2c(C)ccc(C)c21,15
23,COc1cccc(CN2CC(C(=O)NCCCCc3ccccn3)CCC2=O)c1 (centres unmarked),7.17

row,Compound,"hERG current change (%, negative = inhibition) at 1uM [%]"
1,Cc1c(C2C(C#N)=C(N)N(c3ccccc3C#N)C3=C2C(=O)CCC3)cnn1C (centres unmarked),7.52
2,CN1CCCC(OC(=O)c2ccc(C(C)(C)C)cc2)C1.Cl (centres unmarked),15
3,CCOP(=O)(OCC)c1nc(-c2ccc(Br)cc2)oc1N1CCCCC1,-14
4,CN1CCC(NC(=S)Nc2cccc([N+](=O)[O-])c2)CC1,16
5,CCC(C)(C)NC(=O)C(c1cccn1C)N(C(=O)Cn1nnc2ccccc21)c1ccccc1OC (centres unmarked),1.68
6,COc1ccc(S(=O)(=O)Oc2ccc3c(c2)O/C(=C\c2cccnc2)C3=O)cc1,0.695
7,CCOc1ccc(C(=O)Nc2cc(C)on2)cc1OCC,13.1
8,COc1cc([N+](=O)[O-])ccc1NC(=O)NNC(=O)CCc1ccccc1,9.02
9,CCN(CC)CCN(C)C(=O)c1ccc(OC2CCN(C(=O)C3CC3)CC2)cc1,6.4
10,COc1ccc(C2NC(=O)C(C)S2)cc1 (centres unmarked),8.75
11,CCCCOc1ccc(CONS(=O)(=O)c2ccc(NC(C)=O)cc2)cc1Cl,13.9
12,CC(=O)Nc1ccc(OCC(O)CN2C(C)CCCC2C)cc1.Cl (centres unmarked),15.2
13,Cc1cccc(CN2CCN(Cc3ccc(-n4cccn4)cc3)CC2CCO)n1 (centres unmarked),-1.6
14,CCOC(=O)c1cc(-c2ccc(N)cc2)sc1N,-4.02
15,Cc1c(Br)c([N+](=O)[O-])nn1CC(=O)NC1CCCCCC1,8.97
16,Cc1ccc(C)c(NC(=O)CSc2nnc(-c3ccncc3)n2N)c1,11
17,CN1C(=O)/C(=C/c2cccc(Cl)c2)Sc2ccc(C(=O)N3CCOCC3)cc21,-9.05
18,CCOC1=C/C(=C/c2c(N)n3nc(CC(=O)N4CCCC4)sc3nc2=O)C=CC1=O,12.4
19,Cc1ccc(C=Nc2ccccc2C(N)=O)o1,10.2
20,CN(CC(=O)Nc1ccc(F)c(F)c1F)C(=O)CN1C(=O)NC2(CCCC2)C1=O,4.75
